Source: US20230303649A1 (published 2023)

Columns and labels:
Assay in all cases: cell-based or functional assay
[1] = biological target: T1, IL-2R on human primary T cells (human, UniProt P01589 22-272; P14784 27-551; P31785 23-369)
T1 sequence (looked up) 1: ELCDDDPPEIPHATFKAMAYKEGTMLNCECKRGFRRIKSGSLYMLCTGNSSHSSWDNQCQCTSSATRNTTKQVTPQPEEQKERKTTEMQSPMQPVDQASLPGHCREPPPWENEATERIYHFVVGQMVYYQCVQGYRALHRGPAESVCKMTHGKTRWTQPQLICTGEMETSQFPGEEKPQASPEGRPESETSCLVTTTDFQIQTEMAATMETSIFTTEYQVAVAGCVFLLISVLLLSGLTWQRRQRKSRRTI
T1 sequence (looked up) 2: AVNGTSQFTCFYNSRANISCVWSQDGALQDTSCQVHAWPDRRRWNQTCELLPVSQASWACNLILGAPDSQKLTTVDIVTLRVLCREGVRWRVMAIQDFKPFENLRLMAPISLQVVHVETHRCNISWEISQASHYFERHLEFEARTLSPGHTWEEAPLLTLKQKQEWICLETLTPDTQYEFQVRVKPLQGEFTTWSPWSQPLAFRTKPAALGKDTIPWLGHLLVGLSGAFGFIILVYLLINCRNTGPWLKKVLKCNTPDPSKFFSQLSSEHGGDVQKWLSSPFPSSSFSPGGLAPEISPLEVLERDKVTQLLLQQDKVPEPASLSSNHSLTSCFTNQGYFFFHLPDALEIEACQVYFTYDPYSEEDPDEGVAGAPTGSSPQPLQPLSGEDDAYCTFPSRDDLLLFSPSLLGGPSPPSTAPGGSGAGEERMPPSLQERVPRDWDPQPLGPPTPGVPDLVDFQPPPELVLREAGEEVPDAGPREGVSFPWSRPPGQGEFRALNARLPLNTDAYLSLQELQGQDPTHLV
T1 sequence (looked up) 3: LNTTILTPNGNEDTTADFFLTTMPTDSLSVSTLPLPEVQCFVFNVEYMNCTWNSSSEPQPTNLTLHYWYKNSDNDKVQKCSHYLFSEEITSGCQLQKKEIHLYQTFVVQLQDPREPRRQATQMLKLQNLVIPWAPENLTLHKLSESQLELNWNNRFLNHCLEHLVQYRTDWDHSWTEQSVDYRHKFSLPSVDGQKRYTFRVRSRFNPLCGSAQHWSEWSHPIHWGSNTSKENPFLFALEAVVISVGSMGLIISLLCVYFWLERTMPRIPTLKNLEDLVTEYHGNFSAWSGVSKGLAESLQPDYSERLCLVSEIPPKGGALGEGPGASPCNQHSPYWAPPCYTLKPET

[2] = biological target: cynomolgus IL-2R (on cynomolgus monkey Tregs) (cynomolgus monkey)
[3] = biological target: T1, IL-2R on human primary T cells; remark: listed apart in the source
[4] = biological target: T2, mouse IL-2R (on mouse Tregs) (mouse, UniProt P01590 22-268; P16297 27-539; P34902 23-369)
T2 sequence (looked up) 1: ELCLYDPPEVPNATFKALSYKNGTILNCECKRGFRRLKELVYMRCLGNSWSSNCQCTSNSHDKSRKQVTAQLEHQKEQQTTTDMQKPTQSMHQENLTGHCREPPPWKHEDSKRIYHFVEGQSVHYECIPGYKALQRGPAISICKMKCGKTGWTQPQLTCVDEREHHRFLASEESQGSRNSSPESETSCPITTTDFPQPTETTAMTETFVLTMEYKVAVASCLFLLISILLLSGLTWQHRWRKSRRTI
T2 sequence (looked up) 2: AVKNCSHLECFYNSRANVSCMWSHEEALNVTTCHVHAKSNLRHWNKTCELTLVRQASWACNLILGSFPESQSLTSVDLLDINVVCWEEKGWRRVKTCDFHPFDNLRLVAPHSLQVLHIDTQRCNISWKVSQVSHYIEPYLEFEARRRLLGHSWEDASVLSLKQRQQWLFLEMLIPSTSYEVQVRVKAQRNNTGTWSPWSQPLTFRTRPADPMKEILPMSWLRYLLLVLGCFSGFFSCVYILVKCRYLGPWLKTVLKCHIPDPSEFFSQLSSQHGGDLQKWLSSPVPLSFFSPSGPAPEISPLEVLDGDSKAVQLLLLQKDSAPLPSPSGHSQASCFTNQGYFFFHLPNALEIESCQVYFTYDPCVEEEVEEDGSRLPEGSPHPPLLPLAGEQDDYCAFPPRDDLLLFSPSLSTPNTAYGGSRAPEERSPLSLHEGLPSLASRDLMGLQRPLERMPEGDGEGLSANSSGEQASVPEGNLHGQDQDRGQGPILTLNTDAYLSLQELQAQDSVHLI
T2 sequence (looked up) 3: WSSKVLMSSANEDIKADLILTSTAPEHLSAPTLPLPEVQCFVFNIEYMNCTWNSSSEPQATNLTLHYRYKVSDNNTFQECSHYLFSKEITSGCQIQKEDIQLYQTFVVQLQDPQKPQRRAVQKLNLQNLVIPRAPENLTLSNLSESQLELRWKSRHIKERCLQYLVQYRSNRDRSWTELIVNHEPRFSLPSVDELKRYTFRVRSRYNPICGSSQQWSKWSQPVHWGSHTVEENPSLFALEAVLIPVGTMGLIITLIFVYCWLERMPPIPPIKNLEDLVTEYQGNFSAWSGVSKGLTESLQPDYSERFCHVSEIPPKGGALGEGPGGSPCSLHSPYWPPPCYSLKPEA

CD8 EC50 (nM), STAT5 phosphorylation [1]: 9.07 nM
Treg EC50 (nM), STAT5 phosphorylation [1]: 0.019 nM
Treg cyno, potency of STAT5 activation [2]: 0.06
Treg human, potency of STAT5 activation [3]: 0.025
Treg mouse, potency of STAT5 activation [4]: 0.016
B1: Aldesleukin (SEQ ID NO: 2) (ligand)
chain: not shown
